Source: PubChem BioAssay (NCATS)
The inconclusive results got no clear call from the source; some entries with a clear call stand among them for comparison. For part of these data: Potencies of inconclusive entries are left out as doubtful fits. The source made the active and inactive calls. Unless noted, the call rests on the fitted dose curve; in most records, active means well fitted curve in the direction sought with a large enough effect; inconclusive means small, poorly fitted or top-dose-only effect, or another doubt; inactive means no such curve, though single readings can be large; an effect the other way counts as inactive or inconclusive.

What was measured:
[1] = NS1 protein of Zika virus - qHTS assay to identify small molecule inhibitors in human HEK 293 cells (AID 1347053); further: potency means the concentration at half of the fitted maximal effect; nearly all actives have a fitted effect of over 55% in size
In short: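 HEK 293; 20 h pre-culture, 37 C/5% CO2; cpd 1 h pre-infection; ZIKV MR766, MOI = 0.5, 24 h, 37 C; TR-FRET NS1 readout (two anti-NS1 Abs); norm. to no-virus vs infected.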

[2] = qHTS of pediatric cancer cell lines to identify multiple opportunities for drug repurposing: Primary screen for A673 cells (AID 1347092); details: A673 Ewing sarcoma viability, CellTiter-Glo ATP luminescence, 48 h; activity change, negative = cytotoxic: at 46 µM (top of the series); further: potency means the concentration at half of the fitted maximal effect; nearly all actives have a fitted effect of over 45% in size
In short: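 Cell viability of A673 measured by CellTiter-Glo ATP luminescence after 48 hours compound exposure. Dilution series spanned 0.78 nM to 46 µM (MIPE, 11-point) or 0.59 nM to 46 µM (NPC, 8-point); bortezomib 2.3 uM positive control.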

[3] = qHTS of pediatric cancer cell lines to identify multiple opportunities for drug repurposing: Primary screen for SK-N-SH cells (AID 1347098); details: SK-N-SH viability, CellTiter-Glo luminescence, 48 h; activity change, negative = cytotoxic: at 57 µM (top of the series); further: potency means the concentration at half of the fitted maximal effect; nearly all actives have a fitted effect of over 65% in size
In short: (§1)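 Cells (500-1,000/well) rested 5 h, then received compounds for 48 h; metabolically active cells were measured by CellTiter-Glo luminescence. Final concentrations spanned up to 46 µM (MIPE, 11-point) or 0.59 nM-46 µM (NPC, 8-point) in primary screens, 11-point in follow-ups.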

[4] = qHTS of pediatric cancer cell lines to identify multiple opportunities for drug repurposing: Primary screen for BT-12 cells (AID 1347101); further: potency means the concentration at half of the fitted maximal effect; nearly all actives have a fitted effect of over 25% in size
In short: as §1

[5] = qHTS of pediatric cancer cell lines to identify multiple opportunities for drug repurposing: Primary screen for MG 63 (6-TG R) cells (AID 1347105); details: MG 63 (6-TG R) viability, CellTiter-Glo, 48 h; activity change, negative = cytotoxic: at 46 µM (top of the series) unless noted; further: nearly all actives have a fitted effect of over 50% in size
In short: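 500-1,000 cells/well; 5 h pre-incubation 37 °C/5% CO2; compound pinned; 48 h; CellTiter-Glo, 15 min RT; luminescence. MIPE 11-pt from 0.78 nM, NPC 8-pt from 0.59 nM final. Bortezomib 2.3 µM final as positive control.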

[6] = Primary qHTS for small molecule stabilizers of the endoplasmic reticulum resident proteome: Secreted ER Calcium Modulated Protein (SERCaMP) assay (AID 1508630); details: SH-SY5Y GLuc-SERCaMP (Gaussia luciferase released on ER calcium loss) secretion, thapsigargin, luminescence; series mostly up to 38.4 µM; further: potency means the concentration at half of the fitted maximal effect
In short: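 GLuc-SERCaMP-expressing SH-SY5Y cells, pretreated 16 h with compound, are challenged with thapsigargin to empty ER calcium stores; after 4 h, coelenterazine is added directly to the medium and luminescence is imaged.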

[7] = A High-Content qHTS Against Drug Library for the Identification of Small Molecules that Inhibit DYT1 Early Onset Primary Dystonia-Associated Cell Pathology (AID 1645839; calls by dose curve; further: potency means the concentration at half of the fitted maximal effect)
In short: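 Readout: %pathology, the punctate EGFP-TorsinA distribution from imaging, as the primary channel and cell count as the toxicity counterscreen. HEK293 Flp-In cells expressing delE TorsinA were induced with tetracycline and treated with compound for 48 h.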

[8] = Primary qHTS for inhibitors of nuclear receptor binding SET domain protein 2 (NSD2) in an isogenic RCH-ACV NSD2 p.E1099K mutant (9B) (AID 1645876); further: potency means the concentration at half of the fitted maximal effect; nearly all actives have a fitted effect of over 70% in size
[9] = Primary qHTS for inhibitors of nuclear receptor binding SET domain protein 2 (NSD2) in an RCH-ACV wild type WT cells (2C) (AID 1645877); details: activity change, negative = cell killing: at 44.9 µM (top of the series); further: potency means the concentration at half of the fitted maximal effect; nearly all actives have a fitted effect of over 70% in size
MKL-2 = test: qHTS assay to identify novel small-molecules to repurpose for Merkel cell carcinoma treatment (AID 1296009); details: MCC and control cell lines, CellTiter-Glo viability, 72 h; activity change, negative = cytotoxicity: at 46 µM (top of the series); further: potency means the concentration at half of the fitted maximal effect; nearly all actives have a fitted effect of over 60% in size
In short: (§2)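 qHTS format: cells treated with library compounds in DMSO across 8 (NPC) or 11 (MIPE) concentrations. Readout after 72 hr at 37 degree celsius was CellTiter-Glo luminescence.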

WaGa = test: as above; details: MCC and control cell lines, CellTiter-Glo viability, 72 h; series mostly up to 46 µM
In short: as §2

HeLa = test: Primary qHTS to identify gynecologic anti-cancer compounds using libraries of approved drugs and bioactive compounds (AID 1345084); details: Gynecologic cancer cell panel viability, ATPlite luminescence, 48 h; series mostly up to 57.5 µM; further: nearly all actives have a fitted effect of over 55% in size; further: potency means the concentration at half of the fitted maximal effect
In short: (§3)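 Cytotoxicity screen measuring ATP content by luciferase luminescence. Each compound is applied at five concentrations for 48 h at 37 C with 5% CO2.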

Tov112D = test: as above; details: Gynecologic cancer cell panel viability, ATPlite luminescence, 48 h; activity change, negative = cytotoxicity: at 57.5 µM (top of the series)
In short: as §3

[10] = target: Cytochrome P450 2D6 (Homo sapiens) (UniProt P10635); test: Cytochrome P450 family 2 subfamily D member 6 (CYP2D6) small molecule antagonists: luciferase biochemical (cell-free) qHTS assay (AID 1645840; active means well fitted curve in the direction sought with a large enough effect in the repeat runs; inconclusive means weak or mixed curves; inactive means no such curve, though single readings can be large; an effect the other way counts as inactive or inconclusive; further: potency means the concentration at half of the fitted maximal effect; nearly all actives have a fitted effect of over 55% in size)
In short: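 P450-Glo luminescent screen: recombinant CYP2D6 enzyme–proluciferin substrate mix preincubated with compound 10 min at room temperature, then NADPH regeneration added for 1 h at room temperature. Detection reagent added for 20 min; luciferin light read as relative luminescence units.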

[11] = target: Luciferin 4-monooxygenase (Photinus pyralis) (UniProt P08659); test: Primary firefly luciferase (FLuc) qHTS assay for identification of artifact compounds. (AID 1845220); further: potency means the concentration at half of the fitted maximal effect; nearly all actives have a fitted effect of over 60% in size
In short: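 In this counter-screen for luciferase artifacts, test compounds met substrate (10 uM each luciferin and ATP) before 10 nM enzyme started the reaction. Light output was measured 5 min later.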

NIH3T3 = test: Cytotoxic Profiling of Annotated Libraries Using Quantitative High-Throughput Screening (AID 1296008); details: Five cell lines viability, CellTiter-Glo ATP luminescence, 48-72 h; max response: hits give low values; further: potency means the concentration at half of the fitted maximal effect; nearly all actives have a fitted effect of over 60% in size
In short: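 Compounds were pin-transferred onto cells and incubated 48 or 72 hr at 37 degree Celsius, 95% humidity. CellTiter-Glo was added, plates sat 10 min at room temperature, then ATP-coupled luminescence was imaged as the viability read-out.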

C33A = test: Primary qHTS to identify gynecologic anti-cancer compounds using libraries of approved drugs and bioactive compounds (AID 1345084); details: Gynecologic cancer cell panel viability, ATPlite luminescence, 48 h; series mostly up to 57.5 µM; further: nearly all actives have a fitted effect of over 55% in size; further: potency means the concentration at half of the fitted maximal effect
In short: as §3

CAOV3 = test: as above; details: Gynecologic cancer cell panel viability, ATPlite luminescence, 48 h; series mostly up to 57.5 µM
In short: as §3

CASKI = test: as above; details: Gynecologic cancer cell panel viability, ATPlite luminescence, 48 h; activity change, negative = cytotoxicity: at 57.5 µM (top of the series)
In short: as §3

Es-2 = test: as above; details: Gynecologic cancer cell panel viability, ATPlite luminescence, 48 h; series mostly up to 57.5 µM
In short: as §3

OV90 = test: as above; details: Gynecologic cancer cell panel viability, ATPlite luminescence, 48 h; series mostly up to 57.5 µM
In short: as §3

SKOV3 = test: as above; details: Gynecologic cancer cell panel viability, ATPlite luminescence, 48 h; series mostly up to 57.5 µM
In short: as §3

Tov-21-G = test: as above; details: Gynecologic cancer cell panel viability, ATPlite luminescence, 48 h; activity change, negative = cytotoxicity: at 57.5 µM (top of the series)
In short: as §3

astro = test: Drug repurposing screens with cells derived from glioblastoma tumor samples (AID 1345199); details: viability, ATP luminescence, 48 h; series mostly up to 45.9 µM; further: potency means the concentration at half of the fitted maximal effect; nearly all actives have a fitted effect of over 40% in size
In short: (§4)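 Four patient lines of CD133+ GBM neurospheres were screened at several concentrations; hits were retested in those lines plus three slower-growing GBM lines, using 48-hour treatment and ATP-based viability.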

[12] = as above; details: GBM patient neurospheres viability, ATP luminescence, 48 h; Potency: tumour line A unless noted; series mostly up to 46 µM
In short: as §4
Tags describe the fitted curve by direction and shape.

Sequence of UniProt P10635 (P10635 whole entry, looked up): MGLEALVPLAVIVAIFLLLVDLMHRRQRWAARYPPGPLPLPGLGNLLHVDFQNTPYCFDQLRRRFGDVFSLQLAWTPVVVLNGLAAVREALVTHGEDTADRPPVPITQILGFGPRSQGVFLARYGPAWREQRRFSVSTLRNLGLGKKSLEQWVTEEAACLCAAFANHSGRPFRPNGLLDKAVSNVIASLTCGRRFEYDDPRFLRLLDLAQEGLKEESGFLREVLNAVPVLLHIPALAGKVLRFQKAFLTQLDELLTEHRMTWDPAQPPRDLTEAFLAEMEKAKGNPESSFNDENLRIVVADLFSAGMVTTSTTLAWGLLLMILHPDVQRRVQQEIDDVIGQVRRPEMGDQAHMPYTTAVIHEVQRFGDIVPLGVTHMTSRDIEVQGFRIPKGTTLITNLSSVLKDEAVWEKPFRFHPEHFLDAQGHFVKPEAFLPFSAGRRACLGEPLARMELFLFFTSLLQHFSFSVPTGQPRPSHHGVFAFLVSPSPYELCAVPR

In the case of `Cc1ccc(CCn2c3c(c4cc(Cl)ccc42)CN(C)CC3)cn1`, the Potency [1] is reported as inconclusive [inhibitor, single point], the Potency [2] is reported as inconclusive [cytotoxic, single point] and the Potency [3] is reported as inconclusive [cytotoxic, single point]. For the same molecule, the Potency [4] was inconclusive [cytotoxic, partial curve, poor fit], the Potency [5] was “inactive” and the Potency [6] was inconclusive [inhibitor, single point]. For the same molecule, the Potency [7] was inconclusive [inhibitor, partial curve, poor fit], the Potency [8] was inconclusive [inhibitor, single point] and the Potency [9] was inconclusive [inhibitor, single point]. For the same molecule, the Potency (MKL-2) was inconclusive [inhibitor, single point], the Potency (WaGa) was inconclusive [inhibitor, single point] and the Potency (HeLa) was “inactive”. For the same molecule, the Potency (Tov112D) was “inactive”.
With `C=CC(=O)N1CCC[C@@H](n2nc(-c3cccc(C(=O)Nc4ccc(C(C)C)c(C)c4)c3)c3c(N)ncnc32)C1` the Potency [10] was inconclusive [inhibitor, single point], the Potency [9] was active: 9.16 µM and the Potency [11] was active: 6.75 µM. The Potency (NIH3T3) was inconclusive [inhibitor, single point], the Potency (C33A) was inconclusive [cytotoxic, single point] and the Potency (CAOV3) was inconclusive [cytotoxic, single point]. For the same molecule, the Potency (CASKI) was inconclusive [rising, partial curve, poor fit], the Potency (Es-2) was inconclusive [cytotoxic, single point] and the Potency (HeLa) was inconclusive [cytotoxic, partial curve, poor fit]. For the same molecule, the Potency (OV90) was inconclusive [cytotoxic, full curve, poor fit], the Potency (SKOV3) was inconclusive [cytotoxic, single point] and the Potency (Tov-21-G) was active: 14.1 µM. For the same molecule, the Potency (Tov112D) was inconclusive [cytotoxic, single point].
With `C[C@]12C=CC(=O)N[C@@H]1CC[C@@H]1[C@@H]2CC[C@]2(C)[C@@H](C(=O)Nc3cc(C(F)(F)F)ccc3C(F)(F)F)CC[C@@H]12` the Potency (astro) was inconclusive [inhibitor, partial curve].
For `CCCCC[C@H](O)/C=C/[C@H]1[C@H](O)CC(=O)[C@@H]1CCCCCCC(=O)O`, the Potency [9] was active: 20.9 µM, the Potency [12] was active: 11.2 µM and the Potency (astro) was inconclusive [inhibitor, partial curve].
